Inconclusive results, whose numbers are uncertain, are shown with a selection of clear calls. For part of these data: Potencies of inconclusive entries are doubtful fits and often do not repeat. Calls of active or inactive are those of the source. Unless noted, calls follow the shape of the dose curve; as a rule, active = well fitted curve in the direction sought with a large enough effect in the repeat runs; inconclusive = weak or mixed curves; inactive = no such curve, though single readings can be large; an effect the other way counts as inactive or inconclusive.
How the values were obtained:
[1] = molecular target: Peroxisome proliferator-activated receptor delta (Homo sapiens) (UniProt Q03181); experiment: qHTS assay to identify small molecule agonists of the peroxisome proliferator-activated receptor delta (PPARd) signaling pathway (AID 743212; calls by dose curve;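 also: HEK293H cells with PPARd UAS beta-lactamase reporter GeneBLAzer system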; also: potency is read from the fitted curve at half-maximal effect; as to activation: % is scaled to controls: 0 for no effect and ±100 for the full control effect); settings: HEK293H PPARd-UAS-bla, beta-lactamase FRET ratio, 17 h; activation: at 62.6 µM (top of the series) unless noted
Procedure, shortened: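 Beta-lactamase reporter read by fluorescence (LiveBLAzer B/G FRET, 2 h, room temperature). Test agents, in DMSO, incubated at 37 C with PPARd-bla HEK293H cells.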

[2] = qHTS assay to identify small molecule antagonists of the farnesoid-X-receptor (FXR) signaling pathway - cell viability counter screen (AID 743221; active = well fitted cell-killing curve with a large enough effect in the repeat runs, not every such curve was filed as active; inconclusive = weak or mixed curves, or effect the other way; inactive = no such curve, though single readings can be large or run the other way; also: potency is read from the fitted curve at half-maximal effect; nearly all actives have a fitted effect of over 50% in size); settings: FXR-bla HEK293T viability, CellTiter-Glo luminescence, 16 h; activity change, negative = cytotoxicity: at 62.6 µM (top of the series)
Procedure, shortened: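 Cytotoxicity is taken from ATP luminescence (CellTiter-Glo, 30 min, room temperature) in FXR-bla HEK 293T cells previously incubated 16 h at 37 C with compound and chenodeoxycholic acid at 50 uM final.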

[3] = molecular target: Vitamin D3 receptor (Homo sapiens) (UniProt P11473); experiment: qHTS assay to identify small molecule antagonists of the vitamin D receptor (VDR) signaling pathway (AID 743223; active = well fitted inhibition curve with a large enough effect in the signal ratio in the repeat runs, not every such curve was filed as active; inconclusive = weak or mixed curves, or effect the other way; inactive = no such curve, though single readings can be large or run the other way; the % refers to the signal ratio; also: % is scaled to controls: 0 for no effect and ±100 for the full control effect); settings: VDR-UAS-bla HEK293T, beta-lactamase FRET ratio, 16 h; activity change, negative = inhibition: at 61 µM (top of the series) unless noted
Procedure, shortened: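 Quantitative HTS in VDR-bla reporter cells stimulated with 1alpha,25-dihydroxyvitamin D3, 3 nM final. Compound exposure 16 h, 37C, 5% CO2. Read-out: beta-lactamase FRET substrate fluorescence, 2 h RT.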

[4] = qHTS assay to identify small molecule agonists of the endoplasmic reticulum stress response signaling pathway (AID 1159516; active = well fitted activation curve with a large enough effect in the signal ratio in the repeat runs, not every such curve was filed as active; inconclusive = weak or mixed curves, or effect the other way; the % refers to the signal ratio; also: potency is read from the fitted curve at half-maximal effect); settings: ESRE-bla HeLa, ER stress beta-lactamase reporter, 5 h; activation: at 61 µM (top of the series) unless noted
Procedure, shortened: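 Fluorescence at 460 and 530 nm (405 nm excitation) reports beta-lactamase from an ER stress response element in HeLa cells treated 5 hr at 37 C.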

[5] = molecular target: Nuclear receptor ROR-gamma (Homo sapiens) (UniProt P51449); experiment: qHTS assay to identify small molecule antagonists of the retinoid-related orphan receptor gamma (ROR-gamma) signaling pathway (AID 1159521; also: nearly all actives have a fitted effect of over 50% in size; also: potency is read from the fitted curve at half-maximal effect)
Procedure, shortened: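 Inducible-expression reporter assay: doxycycline (1 uM final) switched on RORγ in CHO cells bearing a ROR response element-luciferase construct, with test compounds present from 2 h beforehand. Decreased luminescence after 16 h defined antagonist activity.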

[6] = molecular target: Retinoic acid receptor RXR-alpha (Homo sapiens) (UniProt P19793); experiment: qHTS assay to identify small molecule agonists of the RXR signaling pathway (AID 1159527; calls by dose curve; also: nearly all actives have a fitted effect of over 35% in size; also: potency is read from the fitted curve at half-maximal effect; as to activation: % is scaled to controls: 0 for no effect and ±100 for the full control effect); settings: HEK293T RXRa-UAS-bla, beta-lactamase ratio, 16 h; activation: at 76.8 µM (top of the series) unless noted
Procedure, shortened: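 Compounds in DMSO were added to RXR-alpha-UAS-bla HEK 293T cells kept in 2% charcoal-stripped serum, and incubated 16 hr at 37 C with 5% CO2. Reporter signal came from a 2 hr B/G FRET substrate step.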

[7] = qHTS assay to identify small molecule agonists of the AP-1 signaling pathway (AID 1159526; calls by dose curve; also: % is scaled to controls: 0 for no effect and ±100 for the full control effect); settings: ME-180 (cervical carcinoma) AP-1-bla reporter, beta-lactamase FRET ratio, 5 h; activation: at 76.8 µM (top of the series) unless noted
[8] = qHTS assay to identify small molecule agonists of the RXR signaling pathway - cell viability counter screen (AID 1159529); also: potency is read from the fitted curve at half-maximal effect; nearly all actives have a fitted effect of over 50% in size
Procedure, shortened: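 Counter screen: CellTiter-Glo luminescence. Cells: RXR-alpha-UAS-bla HEK 293T. Medium: 2% charcoal-stripped FBS. Treatment: 16 h, 37 C. Reagent incubation: 30 min, RT.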

[9] = qHTS assay to identify small molecule antagonists of the retinoid acid receptor (RAR) signaling pathway - cell viability counter screen (AID 1159551); also: potency is read from the fitted curve at half-maximal effect; nearly all actives have a fitted effect of over 35% in size
Procedure, shortened: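 In this counter screen, the RARE-luciferase line C3RL4 was exposed for 6 h at 37 C and 5% CO2 to compounds with retinol at 1 uM final. Cellular ATP, read by luminescence, served as the viability measure.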

[10] = molecular target: Peroxisome proliferator-activated receptor delta (Homo sapiens) (UniProt Q03181); experiment: qHTS assay to identify small molecule antagonists of the peroxisome proliferator-activated receptor delta (PPARd) signaling pathway (AID 743215; active = well fitted inhibition curve with a large enough effect in the signal ratio in the repeat runs, not every such curve was filed as active; inconclusive = weak or mixed curves, or effect the other way; inactive = no such curve, though single readings can be large or run the other way; the % refers to the signal ratio;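 also: cells stimulated with agonist L165041 at 300 nM final during compound exposure; potency is read from the fitted curve at half-maximal effect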); settings: HEK293H PPARd-UAS-bla, beta-lactamase FRET ratio, antagonist, 17 h; ratio activity, negative = inhibition: at 62 µM (top of the series) unless noted
Procedure, shortened: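 Here, a reporter line (HEK293H, beta-lactamase under a UAS) measures PPARd signaling. Compounds are tested against agonist L165041 at 300 nM final concentration over 17 h at 37 C, with fluorescence read after substrate.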

[11] = molecular target: Bile acid receptor (Homo sapiens) (UniProt Q96RI1); experiment: qHTS assay to identify small molecule antagonists of the farnesoid-X-receptor (FXR) signaling pathway (AID 743217; active = well fitted inhibition curve with a large enough effect in the signal ratio in the repeat runs, not every such curve was filed as active; inconclusive = weak or mixed curves, or effect the other way; inactive = no such curve, though single readings can be large or run the other way; the % refers to the signal ratio; also: potency is read from the fitted curve at half-maximal effect); settings: HEK293T FXR-UAS-bla, beta-lactamase ratio, CDCA-stimulated, 16 h; activity change, negative = inhibition: at 62.6 µM (top of the series) unless noted
Procedure, shortened: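 Test compounds are pin-transferred onto FXR-bla HEK 293T cells, then chenodeoxycholic acid is added at 50 uM final. After 16 h at 37 °C, LiveBLAzer B/G substrate is applied for 2 h at room temperature and fluorescence read.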
Tags tell the direction and shape of the fitted curve or compound fluorescence and quenching.

Sequence of UniProt Q03181 (Q03181 whole entry, looked up): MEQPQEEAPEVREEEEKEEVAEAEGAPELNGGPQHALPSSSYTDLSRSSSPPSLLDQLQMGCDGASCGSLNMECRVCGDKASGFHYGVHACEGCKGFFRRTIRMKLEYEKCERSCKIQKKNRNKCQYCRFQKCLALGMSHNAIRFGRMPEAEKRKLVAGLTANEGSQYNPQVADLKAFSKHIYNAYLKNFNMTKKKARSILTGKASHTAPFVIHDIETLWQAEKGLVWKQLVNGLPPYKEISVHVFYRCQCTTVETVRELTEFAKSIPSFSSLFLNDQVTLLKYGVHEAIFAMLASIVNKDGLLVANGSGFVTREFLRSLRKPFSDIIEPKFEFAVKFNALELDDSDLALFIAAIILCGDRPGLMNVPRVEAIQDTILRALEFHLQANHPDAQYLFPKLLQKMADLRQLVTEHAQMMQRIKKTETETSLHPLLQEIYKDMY
Sequence of UniProt P19793 (P19793 whole entry, looked up): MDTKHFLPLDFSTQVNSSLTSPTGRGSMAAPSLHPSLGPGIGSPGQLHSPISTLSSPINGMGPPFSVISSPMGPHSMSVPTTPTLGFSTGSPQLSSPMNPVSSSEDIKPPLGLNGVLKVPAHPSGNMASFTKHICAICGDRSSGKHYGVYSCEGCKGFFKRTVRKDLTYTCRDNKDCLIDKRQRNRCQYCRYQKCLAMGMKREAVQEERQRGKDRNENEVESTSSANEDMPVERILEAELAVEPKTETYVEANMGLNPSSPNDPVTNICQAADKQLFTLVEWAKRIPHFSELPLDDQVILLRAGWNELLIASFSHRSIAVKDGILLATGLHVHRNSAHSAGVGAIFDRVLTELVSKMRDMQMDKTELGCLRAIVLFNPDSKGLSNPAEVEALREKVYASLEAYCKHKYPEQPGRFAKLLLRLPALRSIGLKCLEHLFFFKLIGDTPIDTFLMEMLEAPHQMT
Sequence of UniProt P11473 (P11473 whole entry, looked up): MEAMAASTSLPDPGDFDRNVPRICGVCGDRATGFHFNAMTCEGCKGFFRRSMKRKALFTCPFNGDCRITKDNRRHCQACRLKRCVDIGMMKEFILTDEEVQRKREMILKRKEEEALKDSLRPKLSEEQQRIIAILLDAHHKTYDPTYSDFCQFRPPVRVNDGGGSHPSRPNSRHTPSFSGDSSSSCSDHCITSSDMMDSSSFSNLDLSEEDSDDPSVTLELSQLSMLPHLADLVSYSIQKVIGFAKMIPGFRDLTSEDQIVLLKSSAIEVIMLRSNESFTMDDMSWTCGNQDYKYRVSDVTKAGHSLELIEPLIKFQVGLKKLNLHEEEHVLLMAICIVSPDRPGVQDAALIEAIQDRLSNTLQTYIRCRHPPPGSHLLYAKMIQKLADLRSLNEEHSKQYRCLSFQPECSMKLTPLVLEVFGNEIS
Sequence of UniProt Q96RI1 (Q96RI1 whole entry, looked up): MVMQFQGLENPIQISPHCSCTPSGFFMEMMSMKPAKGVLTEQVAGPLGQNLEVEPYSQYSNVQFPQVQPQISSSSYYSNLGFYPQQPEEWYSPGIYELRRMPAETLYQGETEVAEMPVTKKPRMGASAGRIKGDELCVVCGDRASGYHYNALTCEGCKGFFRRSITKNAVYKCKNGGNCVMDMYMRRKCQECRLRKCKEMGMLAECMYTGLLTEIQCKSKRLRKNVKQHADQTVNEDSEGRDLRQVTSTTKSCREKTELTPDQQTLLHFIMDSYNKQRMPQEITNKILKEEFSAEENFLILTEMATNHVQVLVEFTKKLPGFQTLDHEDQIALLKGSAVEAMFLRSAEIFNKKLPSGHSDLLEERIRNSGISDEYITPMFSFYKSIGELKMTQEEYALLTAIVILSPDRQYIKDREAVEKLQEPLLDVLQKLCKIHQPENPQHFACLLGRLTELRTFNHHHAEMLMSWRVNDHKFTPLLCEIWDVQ

CC(C)OC(=O)c1cc2c(OCC(O)CNC(C)(C)C)cccc2[nH]1 (centres undefined)
inconclusive: activation [1] -2.63% | Potency [2] 29.8 µM [falling, partial curve, poor fit] | activity change, negative = inhibition [3] 10.4% | Potency [4] 6.01 µM [falling, single point] | Potency [5] 16.8 µM [inhibitor, partial curve, poor fit] | activation [6] -2.92% [at 35.3 µM]

NC(=O)c1ccccc1[N+](=O)[O-]
inactive: Potency [5] | Potency [7] | Potency [6]
inconclusive: Potency [4] 0.004 µM [falling, full curve]

O=S1(=O)OC(c2ccc(O)cc2)(c2ccc(O)cc2)c2ccccc21
inconclusive: Potency [2] 43.6 µM [rising, partial curve, poor fit] | Potency [4] 30.1 µM [activator, single point] | Potency [5] 43.3 µM [inhibitor, partial curve, poor fit] | activation [6] 8.48% | Potency [8] 7.56 µM [rising, partial curve] | Potency [9] 68.6 µM [cytotoxic, single point]

Cc1ccc(-n2nc(C(C)(C)C)cc2NC(=O)Nc2ccc(OCCN3CCOCC3)c3ccccc23)cc1
active: Potency [11] 16.8 µM
inconclusive: Potency [1] 11.9 µM [rising, partial curve, poor fit] | Potency [10] 16.8 µM [inhibitor, partial curve] | Potency [2] 16.8 µM [falling, partial curve] | Potency [4] 9.52 µM [falling, partial curve] | Potency [5] 29.8 µM [inhibitor, single point] | Potency [6] 12 µM [rising, partial curve, poor fit] | Potency [8] 10.7 µM [cytotoxic, full curve]

From PubChem BioAssay (Tox21)
